The list shows a part of the results.
These sequences were tested on PF3D7_0420300 AP2 domain 1 (GST-tagged) (assay: gcPBM binding intensity (ln(normalized median fluorescence intensity)); higher = stronger DNA binding).
Outline: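 An Agilent 4 × 180k array of primer-extended double-stranded 36-bp intergenic genomic probes, with negative controls, was incubated for 1 h with GST-tagged P. falciparum DNA-binding domains expressed in E. coli. Alexa488 anti-GST antibody detected bound protein, scanned at 488 nm. Binding intensity is the highest Masliner-normalised natural-log median intensity across replicate spots of either probe orientation.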

Sequence	gcPBM binding intensity (ln)
ATGTGGAAATAGAGCACACATATATATAATATATAT [CACACA_site884]	9.46
TATTCATTAAACCATACACACATAATTTTTTTATAA [CACACA_site4618]	9.46
ATATATTATATAAAAAGTACTAAAATAGTAAGATGT [XGTACX_site7493]	9.65
AATGATTTTAAATGAACATAATTTATATTCATAACA [GTGCAC_negctrl_site256]	8.94
GTGTGCCAAATTAGCACACACATATATACATGAATT [CACACA_site7346]	9.58
AATTTTTGTTACAAGATGCACTTAATTTTTCTAAAT	9.07
AATAAAAATTCAAGTTGTACTTTTTTAAAAATACAA [XGTACX_site3949]	8.89
AAAATGAATAAAAATACACACATATATGTTATTCTC [CACACA_site2671]	9.45
AAATTGAGACAACAGGTGCATATAAATATACAGTGT [GTGCAC_site9634]	9.63
CCAACATGCAGACGCACACACAAAAAAAGCATGCAT [CACACA_site74]	9.57
AATAATATATATATTACACACTAATTGTATTATATA [CACACA_site448]	9.37
TAACAATATCTAGATACACACACATATCTCTCAATC [CACACA_site8122]	9.78
TTAATACCCGGACACACACACACAAAATAAAATACA [CACACA_site4296]	10.2
ATTTATTTATTTAGCTGTACATTTATACAGAACGAT [XGTACX_site3336]	9.1
TAACAATAACTTTATACACACATAATATAAATATAT [CACACA_site7635]	9.61
TAAAATTTTAACAAAAAAAAAAAAAAAAAAAGAAAA [CACACA_negctrl_site1335]	9.04
TACGTATTATAAATATGTACATATAATATGTATATA [XGTACX_site468]	9.09
TATATCATCATGTATGTACACACATACATATATTAT [CACACA_site8387]	9.56
ATAACAAAATAATAATGTACGTATAAATATAATTTA [XGTACX_site6049]	9.42
ATAAAGAAAAATAGAAGTACATATATGCATGTTAAT [XGTACX_site4480]	9.48
AACAATAAAAATAATTGTACAAGTCTAAAAAAAATT [XGTACX_site20]	9.37
CAAAAACATACCTACACACACAATATGTATATATAA [CACACA_site3514]	9.93
TGATAACCAAAAAGGGGTACATACACAAAAAAATAC [XGTACX_site1254]	9.72

Sequence	gcPBM binding intensity (ln)
AACAACATTTGATAAACACACAGAAGTATAAATATA [CACACA_site5327]	9.61
TACTTATTAGACTATTGTACATACATTATTAATATT [XGTACX_site7849]	9.32
TAAAAAATTAAGCAACGTACAAATGAAAAGTATAAT [XGTACX_site1058]	9.78
TTATGAAAATATTTTTTTCGTTTGATGTATATGTTT [CACACA_negctrl_site1556]	9.25
AAAAAATATAAATATGTAAAAAGAGAAAAAAAAAAG [GTGCAC_negctrl_site9]	9.47
ATATTTAATTCATCATGTACACAAATAAGAAACAAA [XGTACX_site8076]	9.32
TATAAACATAAAACCAGTACATATATATTTTTCTTC [XGTACX_site212]	9.39
TGAAAATGGGAACCGTGTACAGGGCAGTTATAGGGG [XGTACX_site2950]	9.62
AAAATATAGTAACACATACACACATATATATTTATA [CACACA_site2504]	9.79
AAATTGAAATATTCCTGTACACATTTTGAAAACTTA [XGTACX_site6101]	9.18
TTGTTATGTTTTATTTGTACGTAGGTTTCTATCAAA [XGTACX_site7636]	9.41
TATTAAACTAAATGTAGTACATACACAAAAGAAACC [XGTACX_site606]	9.75
TGTTTGAATATAATCACACATTTATATAAAAAGTTA [CACACA_site5237]	9.04
TCTTTTTGCATGTGTGTGCGCACAAAATACACAAAA [GTGCAC_site9718]	9.42
ATATATTTAAAAAAATGTACAAATCATAAATGCAAG [XGTACX_site4230]	9.29
TATAATGTTGATGATAGTACGTATGAGTTCAAAAAA [XGTACX_site3651]	9.14
AAAAAATTATACCAGTGTACTTTTTTGGTTTTTCTT [XGTACX_site2601]	9.47
AGAAATTAAATGTAAGCACACATAAATTATACACAT [CACACA_site9098]	9.64
AAAAGAATTAATTTATGTACTAATTTCAAGAAATAA [XGTACX_site3241]	8.98
ATATATTATCAACTTACACACAGAAAACTATAATAA [CACACA_site6275]	9.71
CTTTTTCCTTTATAAAGTACTTAAAATATTTAGATA [XGTACX_site4259]	9
TCCTTACACACACTTTTTTTTTTTTTTTTTTCTACA [GTGCAC_negctrl_site263]	9.85
CTCGATCAAGTGTATGCATGTACCAGTGAACAAAAA [TGCATGCA_site635]	9.24

Sequence	gcPBM binding intensity (ln)
GATTCGATCTATATATGTACACATAAATATTTTTTG [XGTACX_site7015]	9.3
TATATATATATATATATATATATATATGTGTATGTA [TGCATGCA_negctrl_site255]	9.55
TATATATTTATTTATTGTACACTCTTTAAGAATACA [XGTACX_site2569]	9.01
AATAAAATTGACCATTCACACAAGAAAAATTAATCA [CACACA_site5636]	9.29
ATACACAAGAATATGTTGCACTTTTATATTCGTATG	9.33
AATATTTATATTAACTGTACAGAAAATATCTTTGCT [XGTACX_site8130]	9.04
CATAAGATTTTTACATGTACATATTTATAATATATT [XGTACX_site6578]	9.36
TTCTTTTTTTTTTTTTCATGTATATTAAACTTTTCA [TGCATGCA_negctrl_site592]	9.41
GATATATAAATTGACACACACATATATACCTATATA [CACACA_site6689]	9.83
AATATAAAAATGTTTACACACACACCGAAATATATT [CACACA_site8800]	10.1
TATGCCATGGCATAATGTACATAAGTGACCTCATAA [XGTACX_site1294]	9.06
TGTATTAAAAATTTGGTGCAACTTTTACATAATAAT	9.11
TTTTTTTTTTTTTTTTGTACGAATAAACAAGTTATT [XGTACX_site5473]	8.64
ATATATATATATATATGTACATATTTTATTTAATTT [XGTACX_site1807]	9.05
AAAAAAAAAAATAAATGTACAAAATAATGGGGAACA [XGTACX_site8723]	9.84
GTGAATGATTTAAGTACACACCGGTATTTATTCAAA [CACACA_site4950]	9.26
AAAAAAAAAAAATACACACACACATATTTATTTATA [CACACA_site6483]	10.1
AAGAAAAAAAAAAAAAATATATATATAAGAACATAT [TGCATGCA_negctrl_site131]	9.33
GATAAAACGTTATGCACACGTACGTGGGTATTTATA [CACACA_site4954]	9.29
AATCTGATTTGTATATGTACACAAATATTTTTATTT [XGTACX_site5295]	9.25
TTTAATAATTATTAAAGTACAAAATAAATATTGAAT [XGTACX_site7538]	9.19
TATAAAAAAATATATATATATATATATATATAAATA [TGCATGCA_negctrl_site22]	8.88
AACTGTACAATTTTTGTGCACAATAATTATTAATAT [GTGCAC_site9462]	9.21

Sequence	gcPBM binding intensity (ln)
ATATTTTTATTTAAACGTACATACACGTTGAAAAGA [XGTACX_site4567]	8.99
TGCTATATAATATGAGCACACATAAGATTTGGTGTT [CACACA_site8148]	9.23
TTTTTCTTTTGATGTTGTACATATATATTATATATA [XGTACX_site2754]	9.22
TTTTCAATTAATAATACACACATGTATATATCATTA [CACACA_site7539]	9.35
TAATGCATTATTAGAATACACACCATACGCATATTT [CACACA_site289]	9.39
TGATGTTGTAACAAAAGTACACACACATTTCTATAA [XGTACX_site5837]	9.38
AATTAGCTATTTAAAAATATATAAAATTTATATATA [CACACA_negctrl_site390]	8.77
GAAATAGAGAGACACACACACATATATTTATGTATT [CACACA_site7794]	9.93
ATCATATTGAATATTTAACACACATTTCGCTTAATT [CACACA_site8652]	9.63
AAAATGTAGAAATGGGTGCACACACATATATAATAT	9.82
TATATATATAAAAGTTGTACAGTGTTTTATATAGTT [XGTACX_site7085]	9.25
TTATGTAAAATCGATACATGCATTAATCATTTTATA [TGCATGCA_site493]	9.12
TCATATTTCCATAGGAGTACATAAAAAAAATAATAT [XGTACX_site7601]	9.15
TATGATATGTTATACACACACGTATTTATGAATTGA [CACACA_site7591]	9.67
ATTTATATTAATGGATAAATAAATGTGTACTTGATA [CACACA_negctrl_site24]	9.17
TTCTTTATTATATGCACACGTACATATAATATATAT [CACACA_site2018]	9.42
ATCAACAAAACATACACACACATATAGATTTATATA [CACACA_site7415]	10
AAAAAAAAAAAACACACACACATATATATATATATA [CACACA_site732]	9.75
TTTTTTTTTTTTTGCACACACATAATAGGTACAAAT [CACACA_site3577]	9.59
TTTTTTTTTTTTTTCTCACACATTTAATGATAATAT [CACACA_site5513]	9.14

Source: the supplement of paper PMC11417369
